Test results from the supplement of paper PMC11417369.
Some of the results follow.

What follows are sequences tested on PF3D7_0420300 AP2 domain 1 (GST-tagged) (assay: gcPBM binding intensity (ln(normalized median fluorescence intensity)); higher = stronger DNA binding).
How it was run: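 Binding intensity is defined as the maximum Masliner-normalised natural-log median intensity across replicate spots for either probe orientation. It was measured on an Agilent 4 × 180k array of primer-extended double-stranded 36-bp intergenic genomic probes and negative controls, to which GST-tagged P. falciparum DNA-binding domains made in E. coli were applied for 1 h in 1× PBS with 1% milk, 0.2 mg/ml BSA, 0.5% salmon testes DNA and 0.03% Triton X-100. Detection was by Alexa488 anti-GST antibody and scanning at 488 nm.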

Row | Sequence | gcPBM binding intensity (ln)
1 | AGGTCTATATAATAAGTGCATTTTTTTTTTTTTTTT [GTGCAC_site9664] | 9.3
2 | GTTATACTCATCAACACACACATACAACGTGGTGTA [CACACA_site4789] | 9.51
3 | ATCAACAAAACATACACACACATATATATATATATA [CACACA_site2989] | 9.74
4 | GCATCTCATTTGTGATGTACTATATTATCCGTTTTT [XGTACX_site7576] | 9.41
5 | TTTCTATATCTATTTAATTAACTTTTTATACTGATT [GTGCAC_negctrl_site415] | 9.23
6 | CACATAAAAAAATAAACACACATATGTATTTATATA [CACACA_site5718] | 9.41
7 | CATATCATTGATTATAGTACACATACCATTTTTTAT [XGTACX_site6572] | 9.45
8 | TGCAATGGAGCATAAAGTACATATAATTGTATTTTT [XGTACX_site7349] | 9.04
9 | AATACAGAGGAAAATACACACGTATATATATAAATA [CACACA_site9125] | 9.69
10 | TAGAATAATCCTTACACACACACACCCACGAATAAA [CACACA_site483] | 10.2
11 | TTTTAAAAAAAAAAAAAAAAAAAAAAAAAAAAAAAA [CACACA_negctrl_site1343] | 8.39
12 | TTTTAAAATTATTAGGTGCATATTTATTCTATATTT | 9.22
13 | TGTTTTTTTATTTTCACACATAATCCAATTATACAT [CACACA_site6070] | 9.45
14 | AGAAATAAGAAATATACACACATATAAATATAAATA [CACACA_site7342] | 9.75
15 | AAAAAAAATGATAATATACACACTTATGGGAGAGCG [CACACA_site2516] | 9.72
16 | TAAAAAAAAACATATACACACAAAAACGTACACATA [CACACA_site1354] | 10.1
17 | TTTTTTTCTCACAATCGTACATAAATACATATATAT [XGTACX_site3150] | 9.24
18 | AGAATATGTTAAAAAAGTACATACTCTTTATATACG [XGTACX_site79] | 9.16
19 | AGGGGAAATAAAATATAAATTATCATATATATATAT [XGTACX_negctrl_site366] | 9.17
20 | TATATTTTTTAAACCACACACAATATAGAGTAGAAT [CACACA_site613] | 9.69
21 | TAATGTACATAAACCGCACACATATAAAAAAATAAA [CACACA_site2851] | 9.47
22 | CGTATATGACAAAAGCGTACGCATCAGCAGAAAAAT [XGTACX_site6248] | 9.26
23 | ATATATATATATATATGTACTGAATAAAGAACAAAA [XGTACX_site5400] | 9.25
24 | TTATTTTTGTTCATAGTGCATAGAATTTATACATAT | 9.3
25 | TTTTTTTTATGGTACACACACGCGTATGGTTGCACG [CACACA_site1877] | 9.65
